In PMC5989226 (Nature Communications, 2018) one finds binding data, which are given here for one molecule.

Sequences of proteins named here, by UniProt entry; tags and fusion partners are left off.
UniProt O49686: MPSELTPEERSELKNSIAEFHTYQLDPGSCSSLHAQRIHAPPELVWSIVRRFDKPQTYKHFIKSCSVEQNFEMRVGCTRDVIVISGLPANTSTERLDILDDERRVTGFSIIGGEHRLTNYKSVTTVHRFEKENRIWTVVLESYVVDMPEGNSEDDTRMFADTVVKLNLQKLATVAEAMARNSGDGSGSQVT

No constants are given. Whether binding was seen depends on the method and setting. Binding seen in cells or lysates may run through a third protein. Some entries that bind do so weakly or less than the wild type. Tags and fused reporters may be left off the sequences shown.

Experiment [1] deals with T1, HA-DOG1 (Arabidopsis) (UniProt A0SVK0).
T1 sequence: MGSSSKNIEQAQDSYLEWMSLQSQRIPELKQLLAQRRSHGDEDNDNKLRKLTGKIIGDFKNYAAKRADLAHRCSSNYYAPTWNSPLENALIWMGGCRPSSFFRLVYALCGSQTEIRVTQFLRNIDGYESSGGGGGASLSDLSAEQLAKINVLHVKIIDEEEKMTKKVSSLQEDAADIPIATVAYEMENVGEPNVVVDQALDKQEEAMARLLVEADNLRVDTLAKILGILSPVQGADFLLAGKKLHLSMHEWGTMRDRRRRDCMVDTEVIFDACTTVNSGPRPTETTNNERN
The experiment is described as follows: co-IP; co-expression in N. benthamiana leaves; extraction buffer 50 mM Na-phosphate pH 7.4, 150 mM NaCl, 0.1% NP-40, 1 mM DTT; anti-HA matrix 3 h at 4 °C; blots with anti-GFP and anti-HA; leaves with or without 100 μM ABA or 50 μM hemin for 24 h.

In experiment [2] the target is HA-PYR1 (Arabidopsis) (UniProt O49686). Described as above.

B1: YFP-AHG1 (expressed in N. benthamiana) (enzyme, UniProt Q9FLI3 1-416)
chain: MTEIYRTISTGRGDDVSPTKCRERRRRRIEMRRQAAVFGEPSSSRNRDRTDMEVYSSFDVPLRKQARRSEIGGLPADIGGFLAPPAASSCQKSEAPVWKGEETEDEPLYGIVSVMGRSRKMEDSVTVKPNLCKPEVNRQRPVHFFAVYDGHGGSQVSTLCSTTMHTFVKEELEQNLEEEEEGSENDVVERKWRGVMKRSFKRMDEMATSTCVCGTSVPLCNCDPREAAISGSTAVTAVLTHDHIIVANTGDSRAVLCRNGMAIPLSNDHKPDRPDERARIEAAGGRVLVVDGARVEGILATSRAIGDRYLKPMVAWEPEVTFMRRESGDECLVLASDGLWDVLSSQLACDIARFCLREETPSSLDLNRMAQEDDNDGEQNPSRSVLAATLLTRLALGRQSSDNISVVVIDLKNSSQ
For the molecule B1, the values for the binding entry in experiment [1] and in experiment [2] were “binds” and “no binding”, respectively.
